# Reference: PubChem BioAssay AID2675 (National Center for Advancing Translational Sciences (NCATS), 2010)
# Among all 280,000 compounds or so, about 100 (0.036%) were called active. The inconclusive results got no clear call from the source; some entries with a clear call stand among them for comparison. Calls follow the shape of the dose curve; as a rule, active = well fitted inhibition curve with a large enough effect in the signal ratio, with a control signal flat (not every such curve was filed as active); inconclusive = small, poorly fitted or top-dose-only effect, or effect the other way, or a change in a side signal; inactive = no such curve, though single readings can be large or run the other way; the % refers to the signal ratio. Potencies of inconclusive entries are doubtful fits and often do not repeat. A note “side channel” means that the fit belongs to a control or component signal, not to the main read-out.
# Target: Muscleblind-like protein 1 (Homo sapiens) (UniProt Q9NR56)
# Test: qHTS Assay for Inhibitors of MBNL1-poly(CUG) RNA binding
# Details: TR-FRET MBNL1-His/biotin-(CUG)12 binding, 665/545 ratio; activity change, negative = inhibition: at 57.5 µM (top of the series)
# Outline: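 Inhibition of protein-RNA binding appears as loss of TR-FRET between terbium anti-His antibody on MBNL1-His and streptavidin-XL665 on biotin-(CUG)12. Activity is normalized to buffer-only and uninhibited-complex controls.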
# % is scaled to controls: 0 for no effect and ±100 for the full control effect; potency is read from the fitted curve at half-maximal effect; tags tell the direction and shape of the fitted curve or compound fluorescence and quenching.
# UniProt Q9NR56, sequence (Q9NR56 whole entry, looked up): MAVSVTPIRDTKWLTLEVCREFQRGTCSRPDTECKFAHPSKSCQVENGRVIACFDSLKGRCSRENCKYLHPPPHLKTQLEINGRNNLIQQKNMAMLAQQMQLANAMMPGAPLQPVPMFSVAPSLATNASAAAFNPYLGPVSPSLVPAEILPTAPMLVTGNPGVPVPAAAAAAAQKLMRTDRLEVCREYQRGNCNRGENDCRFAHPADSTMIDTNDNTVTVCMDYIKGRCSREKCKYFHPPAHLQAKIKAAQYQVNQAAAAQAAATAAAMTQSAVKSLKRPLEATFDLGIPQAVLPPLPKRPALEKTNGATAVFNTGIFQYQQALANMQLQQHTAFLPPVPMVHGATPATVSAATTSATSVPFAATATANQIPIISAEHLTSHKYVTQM
Compound,"activity change, negative = inhibition",Potency
O=C(Cn1cnc2ccccc2c1=O)Nc1ccc2c(c1)OCCO2,inactive: -11.9%,–
O=C(Cn1cnc2cc([N+](=O)[O-])ccc2c1=O)NC(=O)NCc1ccccc1,–,"inconclusive: 2.51 µM [quencher, side channel, full curve]"
O=C(COC(=O)/C=C/C(=O)N1CCN(c2ccccc2)CC1)NC(c1ccccc1)c1ccccc1,inactive: -13.5%,–
COc1cc(CCC(=O)Oc2ccc(C(C)=O)cc2)cc(OC)c1OC,–,"inconclusive: 0.1 µM [fluorescent, side channel, partial curve, poor fit]"
O=C(N1CCN(Cc2ccc3c(c2)OCO3)CC1)C12CC3CC(CC(C3)C1)C2,inactive: 16.1%,–
Cc1ccc(Nc2nc(N3CCOCC3)nc(N3CCOCC3)n2)cc1C,inactive: 4.56%,–
CC(=O)[C@@]1(O)C(C)CC2C3C=C(C)C4=Cc5c(cnn5-c5ccccc5)C[C@]4(C)C3C(O)C[C@@]21C (some centres not stated),–,"inconclusive: 3.16 µM [fluorescent, side channel, single point]"
CCOC(=O)C1(C)NC(c2ccc(N(C)C)cc2)C2C(=O)N(c3ccc(OC)cc3)C(=O)C21 (configuration not stated),inactive: 2.71%,–
COc1ccc(/C=C2/SC(=O)NC2=O)cc1,–,"inconclusive: 20 µM [quencher, side channel, partial curve]"
COc1ccc(C2Nc3ccccc3NC3=C2C(=O)CC(C)(C)C3)cc1 (configuration not stated),–,"inconclusive: 22.4 µM [quencher, side channel, single point]"
CC(NC(=O)c1ccc([N+](=O)[O-])cc1Cl)C1CC2CCC1C2 (configuration not stated),–,"inconclusive: 20 µM [quencher, side channel, partial curve]"
O=[N+]([O-])c1ccc(Sc2ccccn2)nc1,–,"inconclusive: 15.8 µM [quencher, side channel, partial curve]"
COc1cc(/C=N\NC(=O)c2ccc(=O)[nH]n2)cc(OC)c1OC,–,"inconclusive: 20 µM [quencher, side channel, single point]"
CC(C(=O)Nc1cccc([N+](=O)[O-])c1)N(c1ccccc1)S(C)(=O)=O (configuration not stated),–,"inconclusive: 15.8 µM [quencher, side channel, partial curve]"
Cc1nn(Cc2ccccc2)c2c1C(c1ccccc1)C(C#N)=C(N)O2 (configuration not stated),–,"inconclusive: 63.1 µM [inhibitor, single point]"
Cc1ccc(CNC(=O)C(Cc2ccccc2)NS(=O)(=O)c2ccc(Br)s2)cc1 (configuration not stated),inactive: 39.6%,–
COC(=O)c1ccc(/C=N/NC(=O)c2cccc(F)c2)cc1,–,"inconclusive: 1.78 µM [quencher, side channel, partial curve]"
c1ccc(CCNc2ncnc3c2cnn3-c2ccccc2)cc1,inactive: -9.88%,–
COc1cc(/C=C/C(=O)OCC(=O)Nc2ccc(C)cc2[N+](=O)[O-])ccc1O,–,"inconclusive: 10 µM [inhibitor, single point]"
c1cncc(N=c2scc(-c3cccc4ccccc34)n2CCCn2ccnc2)c1,–,"inconclusive: 14.1 µM [quencher, side channel, partial curve]"
O=C(Oc1ccc2ccc(=O)oc2c1)c1ccco1,inactive: 32.6%,–

Compound,"activity change, negative = inhibition",Potency
Cc1ccc(C)c(-c2nn(-c3cc(N4CCN(CCO)CC4)ccc3[N+](=O)[O-])c(=O)c3ccccc23)c1,–,"inconclusive: 17.8 µM [quencher, side channel, partial curve, poor fit]"
CC(=O)Nc1ccc(-c2sc(Nc3cccc4ccccc34)n[n+]2-c2ccccc2)cc1,inactive: 46.2%,–
O=C(CSc1ncnc2nc[nH]c12)c1ccc([N+](=O)[O-])cc1,–,"inconclusive: 1.41 µM [quencher, side channel, full curve]"
CC(=O)N1CCCN(C(=O)c2ccc3nc(Cc4ccccc4F)oc3c2)CC1,inactive: 0.0858%,–
CCc1ccc(/C=C2\SC(=S)N(CCCC(=O)Nc3ccc(C(=O)O)cc3)C2=O)cc1,inactive: 8.56%,–
CCCN(CCC)C(=O)c1ccc2c(=O)n(Cc3ccco3)c(=S)[nH]c2c1,inactive: -0.558%,–
Cc1cc(Cl)cc(C)c1OCCCCN1CCOCC1,–,"inconclusive: 8.91 µM [quencher, side channel, single point]"
Cc1ccc(-c2nn(C(C)(C)C)c3ncnc(NS(=O)(=O)c4ccc([N+](=O)[O-])cc4)c23)cc1,–,"inconclusive: 12.6 µM [quencher, side channel, partial curve]"
COCC(=O)NC1CCN(CC(=O)Nc2ccc(OC)cc2[N+](=O)[O-])CC1,–,"inconclusive: 10 µM [quencher, side channel, partial curve]"
O=C(NNC(=O)c1cc2ccccc2oc1=O)c1ccccc1,–,"inconclusive: 3.16 µM [quencher, side channel, full curve]"
COc1ccc(CCNCc2csc3nc4ccccc4n23)cc1OC,inactive: 0.835%,–
CCN(CC)c1ccc(/C=N/NC(=O)C2CC2)cc1,–,"inconclusive: 3.16 µM [quencher, side channel, full curve]"
CC(C)(C)c1ccc(S(=O)(=O)/N=C2\C=C(NS(=O)(=O)c3ccccc3)C(=O)c3ccccc32)cc1,–,"inconclusive: 20 µM [quencher, side channel, partial curve]"
Cc1nnc(N(Cc2ccccc2)C(=O)c2cnccn2)s1,inactive: -1.26%,–
CCc1ccc(S(=O)(=O)N/N=C\c2ccc([N+](=O)[O-])o2)cc1,–,"inconclusive: 20 µM [quencher, side channel, partial curve]"
Cc1ccc(NC(=O)c2ccccc2)cc1,inactive: 7.63%,–
Cc1cc(C)cc(NC(=O)CCNC(=O)c2ccc([N+](=O)[O-])cc2)c1,–,"inconclusive: 20 µM [quencher, side channel, partial curve]"
CSc1ccc(C(=O)NCC(=O)O)cc1[N+](=O)[O-],–,"inconclusive: 10 µM [quencher, side channel, partial curve]"
N#C/C(=C\c1ccc(O)c(O)c1)C(=O)NCCCc1ccccc1,inactive: 47%,–
CC(=O)CSc1cc(-c2ccccc2)nc2ncnn12,inactive: -7.93%,–
O=C(O)c1ccc2c(c1)C(=O)N(c1cc([N+](=O)[O-])ccn1)C2=O,–,"inconclusive: 25.1 µM [quencher, side channel, partial curve]"
